Experimental data taken from PubChem BioAssay (NCI).
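The compound was tested at five concentrations on cells cultured in 96-well plates, with a 48-hour exposure period. The concentration for 50% growth inhibition is given as GI50. TGI: concentration producing complete growth inhibition.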

System: NCI-H322M lung
Experiment: NCI-60 cell line screen, 48 h

| SMILES | GI50 [nM] | TGI [µM] |
| --- | --- | --- |
| C[C@@H](Nc1c(C#N)cnc2ccc(-c3cnc(N)nc3)cc12)c1ccccc1 | 1030 | 11.1 |
| O=S(=O)(NCCCNc1nccc(-c2[nH]c(-c3ccccc3)nc2-c2ccc(F)c(O)c2)n1)c1ccc(C(F)(F)F)cc1 | 3090 | 10.4 |
